Results from patent US20090047335A1, “Anti-angiogenic peptides and methods of use thereof” (SOPHERION THERAPEUTICS, INC., priority 2004, published 2009).
Where “and” joins values, the source holds several entries; their conditions need not be identical. Equal values may be shown once. Not every detail of the peptide structures is certain; ends, links or a residue may be inferred. Some entries repeat one wording, which the source may state once for all of them.

How the values were obtained:
[1] = system: bovine retinal endothelial cells (BRE); test: VEGF mediated survival/proliferation of BRE cells, WST-1 assay, peptides added at plating (before cells adhered); format: cell-based; conditions: for WST-1 induced colorimetric change measured at 440 nm, average: average of wells; for WST-1 induced colorimetric change measured at 440 nm: single wells
Description: The anti-angiogenic activities of the peptides were tested by measuring the level of inhibition of VEGF mediated survival/proliferation of bovine retinal endothelial cells (BRE), a standard cell line used to test anti-angiogenic compounds. Cells were maintained in Cambrex EGM-2MV medium. On day one cells were starved for either 6 hours or overnight, and thereafter trypsinized and plated in a 96 well plate in 100 μl of Invitrogen OptiMem+1% fetal bovine serum. A 100 μl aliquot of Invitrogen OptiMem+1% fetal bovine serum was then added to the wells in addition to, where appropriate, VEGF to a final concentration of 25 ng/ml and the various peptides to final concentration of 12.5, 25, 50 and 100 μg/ml. After 72 hours incubation, the number of live cells in each well was determined using the WST-1 assay (Roche).
The experiment was repeated using higher concentrations of peptide, to a maximum concentration of 200 μg/ml. This required the addition of a substantial amount of water (the peptides are soluble in water and are maintained as stock solution of 2 mg/ml). Therefore, we tested whether the addition of water itself would have any inhibitory effects. As before, BRE were maintained in Cambrex EGM-2MV medium. On day one, cells were starved for either 6 hours or overnight, and thereafter trypsinized and plated in a 96 well plate in 100 μl of OptiMem+1% fetal bovine serum. A 100 μl aliquot of OptiMem+1% fetal bovine serum was then added to the wells, further containing, where appropriate, VEGF to a final concentration of 25 ng/ml and the various peptides to final concentration of 25, 50, 100 and 200 μg/ml. After 72 hours incubation, the amount of live cells in each well was measured using the WST-1 assay (Roche). […]

[2] = system: bovine retinal endothelial cells (BRE); test: VEGF mediated survival/proliferation of BRE cells, WST-1 assay, peptides added after cells had adhered; format: cell-based; conditions: for WST-1 induced colorimetric change measured at 440 nm, average: average of wells; for WST-1 induced colorimetric change measured at 440 nm: single wells
[3] = system: VEGF-induced angiogenesis; test: VEGF-induced angiogenesis in Matrigel angio-reactors in FVB/N mice, FITC-dextran fluorescence; format: in vivo; conditions: experiment 1; for relative fluorescence (FITC-dextran) of angio-reactors, mean: group mean
Description: The peptides of the invention were also tested in an in vivo model of anti-angiogenic activity. This model analyzes VEGF-induced angiogenesis as it occurs in angio-reactors filled with Matrigel in wild-type FVB/N mice (Guedez et al., 2003, Am. J. Pathol. 162:1431-1439).
• Sterile, polyethene tubing (0.14 cm internal diameter) is cut to standard 1 cm lengths using a plexiglass template and single edge razor blade. These tubes are sealed at one end with nail-polish. Into the tubes, 20 μl of Matrigel (growth factor free obtained from BD Biosciences) containing 500 ng/ml VEGF with or without the indicated peptides is injected. After one hour of polymerization of the Matrigel at room temperature the angio-reactors are subcutaneously implanted into both flanks of wild-type FVB/N female mice (8-10 weeks old).
• After 10 days, angiogenesis in the angio-reactors is determined. Mice receive a 100 μl injection of 25 mg/ml of FITC-dextran in phosphate-buffered saline (PBS) via tail vein 20 minutes before collection of the angio-reactors. Quantification of vessel functionality is performed by removal of the Matrigel from the angio-reactors and the fluorescence is measured using a FLUOstar Galaxy microplate reader (excitation 485 nm, emission 520 nm, BMG Labtechnologies GmbH, Germany). The mean relative fluorescence±SD for 10 angio-reactors is determined and statistical analysis performed.

**Q.** `CC(C)C[C@@H](NC(=O)[C@@H](CO)NC(=O)[C@H](NC(=O)[C@@H](C)N)[C@H](C)O)C(=O)N1CCC[C@@H]1C(=O)N1CCC[C@@H]1C(=O)N[C@H](Cc1c[nH]cn1)C(=O)N[C@H](CO)C(=O)N[C@H](CO)C(=O)N[C@H](CCC(N)=O)C(=O)N[C@H](CO)C(=O)N1CCC[C@@H]1C(=O)O` [ST100,045, ATSLPPHSSQSP] was tested. Which “number and morphology of cells (photomicrographs, FIG. 8)” value ([1]; VEGF plus 50 μg/ml peptide) did it give?
**A.** The value was “very few cells”.

**Q.** And the “WST-1 induced colorimetric change measured at 440 nm, average” value ([1]; before cells adhered, first line of averages (75), Table 6)?
**A.** The value was 0.4583.

**Q.** What about the “WST-1 induced colorimetric change measured at 440 nm, average” value ([1]; before cells adhered, fourth line of averages (10), Table 6) of the same compound?
**A.** The value was 0.5433.

**Q.** What about the “WST-1 induced colorimetric change measured at 440 nm, average” value ([1]; before cells adhered, second line of averages (50), Table 6) of the same compound?
**A.** The value was 0.487.

**Q.** What about the “WST-1 induced colorimetric change measured at 440 nm, average” value ([1]; before cells adhered, third line of averages (30), Table 6) of the same compound?
**A.** Its value is 0.532.

**Q.** What about the “WST-1 induced colorimetric change measured at 440 nm, average” value ([1]; peptide 5 μg/ml, VEGF 25 ng/ml, 72 h, Table 4) of the same compound?
**A.** The value was 0.8468.

**Q.** And the “WST-1 induced colorimetric change measured at 440 nm, average” value ([1]; peptide 12.5 μg/ml, VEGF 25 ng/ml, 72 h, Table 4)?
**A.** The value was 0.8253.

**Q.** And the “WST-1 induced colorimetric change measured at 440 nm, average” value ([1]; peptide 25 μg/ml, VEGF 25 ng/ml, 72 h, Table 4)?
**A.** The value was 0.8073.

**Q.** What about the “WST-1 induced colorimetric change measured at 440 nm, average” value ([1]; peptide 50 μg/ml, VEGF 25 ng/ml, 72 h, Table 4) of the same compound?
**A.** Its value is 0.694.

**Q.** What about the “WST-1 induced colorimetric change measured at 440 nm” value ([1]; added before cells adhered, peptide 10, Table 6) of the same compound?
**A.** Its value is 0.551 and 0.545 and 0.534.

**Q.** And the “WST-1 induced colorimetric change measured at 440 nm” value ([1]; added before cells adhered, peptide 30, Table 6)?
**A.** The value was 0.538 and 0.527 and 0.531.

**Q.** And the “WST-1 induced colorimetric change measured at 440 nm” value ([1]; added before cells adhered, peptide 50, Table 6)?
**A.** The value was 0.481 and 0.492 and 0.488.

**Q.** And the “WST-1 induced colorimetric change measured at 440 nm” value ([1]; added before cells adhered, peptide 75, Table 6)?
**A.** The value was 0.462 and 0.455 and 0.458.

**Q.** And the “WST-1 induced colorimetric change measured at 440 nm” value ([1]; peptide 5 μg/ml, VEGF 25 ng/ml, 72 h, 1% FBS, Table 4)?
**A.** The value was 0.835 and 0.901 and 0.907 and 0.744.

**Q.** And the “WST-1 induced colorimetric change measured at 440 nm” value ([1]; peptide 12.5 μg/ml, VEGF 25 ng/ml, 72 h, 1% FBS, Table 4)?
**A.** Its value is 0.873 and 0.886 and 0.827 and 0.715.

**Q.** What about the “WST-1 induced colorimetric change measured at 440 nm” value ([1]; peptide 25 μg/ml, VEGF 25 ng/ml, 72 h, 1% FBS, Table 4) of the same compound?
**A.** The value was 0.838 and 0.827 and 0.847 and 0.717.

**Q.** And the “WST-1 induced colorimetric change measured at 440 nm” value ([1]; peptide 50 μg/ml, VEGF 25 ng/ml, 72 h, 1% FBS, Table 4)?
**A.** The value was 0.704 and 0.715 and 0.696 and 0.661.

**Q.** And the “WST-1 decreases on adherent BRE (in words)” value ([2]; Table 5 experiment, 10-75 μg/ml, peptides added after cells adhered)?
**A.** Its value is “no effect was observed”.

**Q.** What about the “WST-1 induced colorimetric change measured at 440 nm, average” value ([2]; adherent cells, peptide 10 μg/ml, Table 5) of the same compound?
**A.** Its value is 0.7393.

**Q.** And the “WST-1 induced colorimetric change measured at 440 nm, average” value ([2]; adherent cells, peptide 30 μg/ml, Table 5)?
**A.** The value was 0.7413.

**Q.** What about the “WST-1 induced colorimetric change measured at 440 nm, average” value ([2]; adherent cells, peptide 50 μg/ml, Table 5) of the same compound?
**A.** Its value is 0.7343.

**Q.** What about the “WST-1 induced colorimetric change measured at 440 nm, average” value ([2]; adherent cells, peptide 75 μg/ml, Table 5) of the same compound?
**A.** The value was 0.7323.

**Q.** And the “WST-1 induced colorimetric change measured at 440 nm, average” value ([2]; after cells adhered, repeat, peptide 10, Table 7)?
**A.** The value was 0.5433.

**Q.** What about the “WST-1 induced colorimetric change measured at 440 nm, average” value ([2]; after cells adhered, repeat, peptide 30, Table 7) of the same compound?
**A.** Its value is 0.5417.

**Q.** What about the “WST-1 induced colorimetric change measured at 440 nm, average” value ([2]; after cells adhered, repeat, peptide 50, Table 7) of the same compound?
**A.** The value was 0.5183.

**Q.** What about the “WST-1 induced colorimetric change measured at 440 nm, average” value ([2]; after cells adhered, repeat, peptide 75, Table 7) of the same compound?
**A.** Its value is 0.5207.

**Q.** What about the “WST-1 induced colorimetric change measured at 440 nm” value ([2]; added after cells adhered, repeat, peptide 10, Table 7) of the same compound?
**A.** Its value is 0.535 and 0.548 and 0.547.

**Q.** What about the “WST-1 induced colorimetric change measured at 440 nm” value ([2]; added after cells adhered, repeat, peptide 30, Table 7) of the same compound?
**A.** The value was 0.532 and 0.538 and 0.555.

**Q.** What about the “WST-1 induced colorimetric change measured at 440 nm” value ([2]; added after cells adhered, repeat, peptide 50, Table 7) of the same compound?
**A.** Its value is 0.518 and 0.525 and 0.512.

**Q.** What about the “WST-1 induced colorimetric change measured at 440 nm” value ([2]; added after cells adhered, repeat, peptide 75, Table 7) of the same compound?
**A.** The value was 0.52 and 0.522.

**Q.** What about the “WST-1 induced colorimetric change measured at 440 nm” value ([2]; adherent cells, peptide 10 μg/ml, VEGF 25 ng/ml, 72 h, Table 5) of the same compound?
**A.** Its value is 0.729 and 0.739 and 0.75.

**Q.** And the “WST-1 induced colorimetric change measured at 440 nm” value ([2]; adherent cells, peptide 30 μg/ml, VEGF 25 ng/ml, 72 h, Table 5)?
**A.** Its value is 0.736 and 0.744.

**Q.** What about the “WST-1 induced colorimetric change measured at 440 nm” value ([2]; adherent cells, peptide 50 μg/ml, VEGF 25 ng/ml, 72 h, Table 5) of the same compound?
**A.** Its value is 0.723 and 0.734 and 0.746.

**Q.** What about the “WST-1 induced colorimetric change measured at 440 nm” value ([2]; adherent cells, peptide 75 μg/ml, VEGF 25 ng/ml, 72 h, Table 5) of the same compound?
**A.** The value was 0.735 and 0.745 and 0.717.

**Q.** And the “VEGF-mediated angiogenesis in angio-reactors (in words)” value ([3]; 40 micromolar, only three responding VEGF controls used)?
**A.** Its value is “clearly inhibit VEGF-mediated angiogenesis”.

**Q.** What about the “relative fluorescence (FITC-dextran) of angio-reactors, mean” value ([3]; VEGF + inhibitor 40 μM) of the same compound?
**A.** Its value is 14466.

**Q.** And the “relative fluorescence (FITC-dextran) of angio-reactors, mean” value ([3]; VEGF + inhibitor 160 μM)?
**A.** The value was 23492.
